# Assay results from patent US7592316B2, “Peptides as NS3-serine protease inhibitors of hepatitis C virus” (Schering Corporation, priority 2000, dated 2009).
# *1 amine or outer side, *2 acyl side, *3 side chain or, on linkers, in order; H or OH if unused. Where a SMILES comes first, the peptide text is derived from it. [ ]: non-standard residue; d: D form. The star is where a group is joined. Pro(3R,4S-CMe2) = CC1(C)[C@@H]2[C@@H](C(=O)O)NC[C@@H]21; Isobutyloxycarbonyl = CC(C)COC(=O)*; X8 = O=C(C(=O)[*:2])C(CC1CC1)N[*:1]; cisHyp = O=C(O)[C@@H]1C[C@H](O)CN1; X2 = CCCC(N[*:1])C(=O)C(=O)[*:2]; Chg = N[C@H](C(=O)O)C1CCCCC1; Phg = N[C@H](C(=O)O)c1ccccc1; Tle = CC(C)(C)[C@H](N)C(=O)O; CO = O=C([*:1])[*:2]; NHtBu = CC(C)(C)N*; NHiPr = CC(C)N*; tBu = CC(C)(C)*
# Biological target: HCV NS3/NS4A protease (strain 1a) (Hepatitis C virus genotype 1a, UniProt P27958)
# Assay: biochemical
# Conditions: Table 5; HCV NS3/NS4A protease, spectrophotometric assay, 30° C., pH 6.5; read-out: Ki* Range
row,SMILES,Ki
1,CCCC(NC(=O)[C@@H]1[C@@H]2[C@H](CN1C(=O)[C@@H](NC(=O)[C@H](CC(C)C)NS(C)(=O)=O)C(C)(C)C)C2(C)C)C(=O)C(N)=O (stereo partly drawn),101 to 1000 nM
2,CN(C)C(=O)[C@@H](NC(=O)CNC(=O)C(=O)C(CC1CC1)NC(=O)[C@@H]1C2C(CN1C(=O)[C@@H](O)C(C)(C)C)C2(C)C)c1ccccc1 (stereo partly drawn),101 to 1000 nM
3,C=CCCC(NC(=O)[C@@H]1[C@@H]2[C@H](CN1C(=O)[C@@H](NC(=O)NC13CC4CC(CC(C4)C1)C3)C1CCCCC1)C2(C)C)C(=O)C(=O)NCC=C (stereo partly drawn),101 to 1000 nM
4,C=CCCC(NC(=O)[C@@H]1C2C(CN1C(=O)C(NC(=O)OC(C)(C)C)C1CCCCC1)C2(C)C)C(=O)C(=O)NCC(=O)N[C@H](C(=O)N(C)C)c1ccccc1 (stereo partly drawn),1 to 100 nM
5,C=CCCC(NC(=O)C1[C@@H]2[C@H](CN1C(=O)[C@@H](NC(=O)OC(C)(C)C)C(C)(C)C)C2(C)C)C(=O)C(=O)NCCC(=O)Cc1ccccc1 (stereo partly drawn),101 to 1000 nM
6,CCCC(NC(=O)[C@@H]1[C@@H]2[C@H](CN1C(=O)[C@@H](NC(=O)NC(C)(C)C)C(C)(C)C)C2(C)C)C(=O)C(N)=O (stereo partly drawn),101 to 1000 nM
7,CCCC(NC(=O)[C@@H]1C[C@H](OC(C)(C)C)CN1C(=O)[C@@H](NC(=O)OCC(C)C)C1CCCCC1)C(=O)C(=O)NCC(=O)N[C@H](C(=O)N(C)C)c1ccccc1 (stereo partly drawn) (Isobutyloxycarbonyl-[Chg][cisHyp](tBu)[X2]G[Phg]-NMe2),> 1000 nM
8,CC(C)CC(NC(=O)[C@@H]1[C@@H]2[C@H](CN1C(=O)[C@@H](NC(=O)OC(C)(C)C)C(C)(C)C)C2(C)C)C(=O)C(N)=O (stereo partly drawn),101 to 1000 nM
9,COC(=O)C(=O)C1(NC(=O)[C@@H]2[C@@H]3[C@H](CN2C(=O)[C@@H](NC(=O)OC(C)(C)C)C(C)(C)C)C3(C)C)CC1,> 1000 nM
10,"CCCC(NC(=O)[C@@H]1[C@@H]2[C@H](CN1C(=O)[C@@H](NC(=O)NC(C)C)C(C)(C)C)C2(C)C)C(=O)C(=O)NCC(=O)N[C@H](C(=O)N(C)C)c1ccccc1 (stereo partly drawn) ({NHiPr-CO}-[Tle][Pro(3R,4S-CMe2)][X2]G[Phg]-NMe2)",1 to 100 nM
11,CN(C)C(=O)[C@@H](NC(=O)CNC(=O)C(=O)C(CC1CC1)NC(=O)[C@@H]1C2C(CN1C(=O)CC1CCCCC1)C2(C)C)c1ccccc1 (stereo partly drawn),101 to 1000 nM

# Now from value to compound:
row,Ki,SMILES
1,101 to 1000 nM,CC(C)(C)OC(=O)N[C@H](C(=O)N1C[C@H]2[C@@H]([C@H]1C(=O)NC(CC1CC1)C(=O)C(=O)O)C2(C)C)C(C)(C)C (stereo partly drawn)
2,101 to 1000 nM,CC(C)(C)OC(=O)N[C@H](C(=O)N1C[C@H]2OC(C)(C)C[C@H]2[C@H]1C(=O)NC(CC1CC1)C(=O)C(N)=O)C1CCCCC1 (stereo partly drawn)
3,> 1000 nM,C=CCNC(=O)C(=O)[C@@H](CCC)NC(=O)[C@@H]1C2CCC(C2)N1C(=O)[C@@H](NC(=O)OC(C)(C)C)C1CCCCC1 (stereo partly drawn) [drawing 1739]
4,101 to 1000 nM,CC1(C)[C@H]2[C@@H](C(=O)NC(CC3CC3)C(=O)C(N)=O)N(C(=O)[C@@H](NC(=O)OC3CC3)C3CCCCC3)C[C@H]21 (stereo partly drawn)
5,1 to 100 nM,CC(C)(C)OC(=O)N[C@H](C(=O)N1C[C@H]2[C@@H]([C@H]1C(=O)NC(CC1CC1)C(=O)C(N)=O)C2(C)C)C1CCCC1 (stereo partly drawn)

# Same assay, conditions: Table 6; HCV NS3/NS4A protease, 30° C., pH 6.5; read-out: Ki*
row,SMILES,Ki
1,CC(=O)OCC(C)(COC(C)=O)NC(=O)N[C@H](C(=O)N1C[C@H]2[C@@H]([C@H]1C(=O)NC(CC1CCC1)C(=O)C(N)=O)C2(Cl)Cl)C(C)(C)C (stereo partly drawn),101 to 1000 nM
2,C=CCCC(NC(=O)[C@@H]1[C@@H]2[C@H](CN1C(=O)[C@@H](NC(=O)NC(C)(C)C)C(C)(C)C)C2(C)C)C(=O)C(=O)NCCC(=O)NC(C)(C)c1ccccc1 (stereo partly drawn),101 to 1000 nM
3,"CC(C)[C@H](NC(=O)NC(C)(C)C)C(=O)N1C[C@H]2[C@@H]([C@H]1C(=O)NC(CC1CC1)C(=O)C(=O)NCC(=O)N[C@H](C(=O)N(C)C)c1ccccc1)C2(C)C (stereo partly drawn) ({NHtBu-CO}-V[Pro(3R,4S-CMe2)][X8]G[Phg]-NMe2)",1 to 100 nM

# Other lines, results leading:
row,Ki,SMILES
1,101 to 1000 nM,CC(C)(C)[C@H](NC(=O)OC(C)(C)C(F)(F)F)C(=O)N1C[C@H]2[C@@H]([C@H]1C(=O)NC(CC1CCC1)C(=O)C(N)=O)C2(C)C (stereo partly drawn)
2,101 to 1000 nM,CC(C)(C)NC(=O)N[C@H](C(=O)N1C[C@H]2[C@@H]([C@H]1C(=O)NC(CC1CC1)C(=O)C(N)=O)C2(C)C)C1(C)CC1 (stereo partly drawn)
3,101 to 1000 nM,CC(F)(F)CC(NC(=O)[C@@H]1[C@@H]2[C@H](CN1C(=O)[C@@H](NC(=O)NC1(C)CCCCC1)C1CCCCC1)C2(C)C)C(=O)C(N)=O (stereo partly drawn)
4,101 to 1000 nM,CC(C)(C#N)OC(=O)N[C@H](C(=O)N1C[C@H]2[C@@H]([C@H]1C(=O)NC(CC1CCC1)C(=O)C(N)=O)C2(Cl)Cl)C(C)(C)C (stereo partly drawn)
5,101 to 1000 nM,CC(C)(C#N)OC(=O)N[C@H](C(=O)N1C[C@H]2[C@@H]([C@H]1C(=O)NC(CC1CCC1)C(=O)C(N)=O)C2(Cl)Cl)C1CCCCC1 (stereo partly drawn)
